Here are results for 84 molecules from PubChem BioAssay (NCI).

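Step 1: Grow cells in 96-well plates. Step 2: Expose to compound for 48 hours at 5 concentrations. Step 3: Interpolate endpoints linearly; if unreached, use highest concentration. GI50 marks 50% less growth. At the TGI there is no net growth.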 Some results are limits rather than exact numbers.

The test deals with NCI-H322M lung. The experiment in a line: growth of human tumour cells (NCI), 48 h.
Consider `NC(=O)C#CC#CC#CCO`, for which the TGI came out at 23 µM.

Consider `O=C(O)c1cc(=O)[nH]c(SCc2ccccc2)n1`, for which the TGI is more than 100 µM.

On to `COc1cccc(C2C3=C(COC3=O)N(CCO)c3cc(OC)ccc32)c1` (stereo unspecified), for which the GI50 is 0.468 µM and the TGI was more than 100 µM.

Regarding `C=[N+](CNC(=O)CNC(=O)C(Cc1ccc([N+](=O)[O-])cc1)NC(=O)OC(C)(C)C)C(=O)CNC(=O)C(Cc1ccc([N+](=O)[O-])cc1)NC(=O)OC(C)(C)C` (stereo unspecified), the TGI is more than 100 µM.

As to `O=[N+]([O-])c1ccc2[nH]nc(OCc3ccccn3)c2c1`, the TGI was more than 100 µM.

For the molecule `Cn1cc(C2=C(c3cn(CCO)c4ccccc34)C(=O)NC2=O)c2ccccc21`, the GI50 was 5.73 µM and the TGI was more than 19.3 µM.

Take `Nc1nc(NCCO)c(N=O)c(=O)[nH]1`: the TGI was more than 100 µM.

Consider `CC(C)(C)n1c(=O)[nH]n(C2NN=Cc3cccc4cccc2c34)c1=O` (stereo unspecified), for which the TGI is more than 100 µM.

Take `Cc1ccc(NP(=O)(Oc2ccccc2)N(CCCl)CCCl)cc1` (stereo unspecified): the TGI is more than 100 µM.

On to `COc1cc(OC)cc(OCc2ccc3nc(-c4ccccc4)c(Cl)nc3c2)c1`, for which the TGI was more than 100 µM.

For the molecule `CCOC(=O)c1c(-c2ccccc2)oc(-c2ccccc2)c1C(=O)OCC`, the TGI is more than 100 µM.

For the molecule `CC(=O)Nc1ccc(/C=C/C(=O)c2ccccc2)cc1`, the GI50 was 26.8 µM and the TGI is 69.5 µM.

`Oc1ccc(CN2CCC(N3CCOCC3)CC2)c2cccnc12`: the GI50 was 24.9 µM and the TGI was more than 100 µM.

Regarding `C/C=C/C/C=C/CCC(=O)[C@H]1O[C@H]1C(N)=O`, the GI50 was 15.8 µM and the TGI worked out at 30.3 µM.

Turning to `COc1cc(/C=N/n2c(Cc3ccc(Cl)cc3)n[nH]c2=O)cc(OC)c1OC`, the TGI was more than 100 µM.

`Nc1ccccc1-c1ccc([N+](=O)[O-])cc1`: the GI50 was 89.4 µM and the TGI is more than 100 µM.

Turning to `c1ccc2c(c1)sc1c3cnccc3ccc21`, the TGI is more than 100 µM.

`Cc1noc2cccc(OCc3ccccc3)c12` registered a TGI of more than 100 µM.

For `COc1ccc2c(c1)=C(C=C1C=CN(O)C=C1)C(=O)N=2`, the GI50 is 19.4 µM and the TGI amounted to 62.2 µM.

As to `O=Cc1cc([N+](=O)[O-])no1`, the TGI is more than 100 µM.

As for `COc1cc(C(=O)N2N=C(c3ccc(S(C)(=O)=O)cc3)CC2c2ccco2)cc(OC)c1OC` (stereo unspecified), the GI50 is 12.2 µM and the TGI was more than 100 µM.

As for `S=C(N/N=C(/c1ccccc1)c1ccccn1)N1CCCCC1`, the TGI came to 13.1 µM.

Molecule `N#CC(c1ccnc(Cl)n1)c1nc2ccccc2s1` (stereo unspecified) displayed a TGI of 39.3 µM.

`Cc1cc(Cl)cc2c(N=Nc3ccccc3[N+](=O)[O-])c(O)[nH]c12` displayed a TGI of more than 100 µM.

In the case of `C#CCN(Cc1nc2cc(C(F)(F)F)ccc2nc1-c1ccccc1)c1ccc(OC(F)(F)F)cc1`, the GI50 is 73.4 µM and the TGI is more than 100 µM.

`O=C(CCC(=O)Nc1cccc(Cl)c1)CC(=O)c1ccc(F)cc1`: the TGI was more than 100 µM.

As for `O=C(c1ccco1)N(Cc1ccco1)C(=S)Nc1ccccc1`, the TGI was more than 100 µM.

Molecule `O=C(Nc1ccccc1)c1nn(-c2cc(S(=O)(=O)O)c([N+](=O)[O-])cc2Cl)[n+](-c2cc(S(=O)(=O)[O-])c([N+](=O)[O-])cc2Cl)n1` yielded a TGI of more than 100 µM.

For `CC1=NOC2(C1)C(=O)Nc1ccccc12` (stereo unspecified), the TGI is more than 100 µM.

For the molecule `Cc1ccc(O)c(C(c2ccc([N+](=O)[O-])cc2)c2cc(C)ccc2O)c1`, the TGI stood at 35.9 µM.

`Cc1ncc([N+](=O)[O-])n1CCN(C)C(=O)CCCn1ccnc1[N+](=O)[O-]`: the TGI was more than 100 µM.

`N#CC(c1nc2ccccc2s1)c1ncnc(Cl)c1[N+](=O)[O-]` (stereo unspecified) had a TGI of 30.9 µM.

`Cc1nc2ccc(Cl)cc2c2c1CCS2` returned a TGI of more than 100 µM.

In turn, `O=S(=O)(O)CCCC1S(=O)(=O)OCCOS1(=O)=O` yielded a TGI of more than 100 µM.

As to `CCOc1ccccc1NC(=O)c1cc2ccccc2cc1O`, the GI50 was 2.91 µM and the TGI worked out at 15.9 µM.

For the molecule `Cc1ccc2c(c1)c1nc3cc(C)c(C)cc3nc1n2CCN(C)C`, the GI50 is 1.96 µM and the TGI amounted to 7.02 µM.

`Nc1cc2c(nnn2C2OC(COCc3ccccc3)C(OCc3ccccc3)C2OCc2ccccc2)c(=O)[nH]1` (stereo unspecified) came in with a TGI of more than 100 µM.

As for `CC(C)(O)C#Cc1ccc(/C=C/C(=O)c2ccccc2)s1`, the GI50 is 18.7 µM and the TGI was determined as 33.7 µM.

`CN(C)c1ccc(/C=C(\NC(=O)c2ccccc2)C(=O)NCC(=O)O)cc1`: the TGI is more than 100 µM.

`CC(=O)Oc1c(C)c2c(O)c3c1C1=C(OCOC1=C(C)C3=O)/C(C)=C\C(C)(O)C(O)C(C)C(O)C1C(=O)OC(C(C)C1O)C(C)(O)/C=C/C=C(C)C(=O)N2` (stereo unspecified): the TGI is more than 100 µM.

`Cc1ccc(S(=O)(=O)n2c3c(c4ccccc42)CCN2C(=O)C(S(=O)(=O)c4ccccc4)=CCC32)cc1` (stereo unspecified) gave a TGI of 1.09 µM.

In the case of `COc1cc2c3c(n(CCCN(CCN)CCCn4c5c(c6cc(OC)c(OC)cc6c4=O)C(=O)c4cc6c(cc4-5)OCO6)c(=O)c2cc1OC)-c1cc2c(cc1C3=O)OCO2`, the GI50 is 1.9 µM.

The molecule `S=c1nc(Cc2ccc(Cl)cc2)[nH][nH]1` returned a TGI of more than 100 µM.

For `O=S1(=O)C(c2ccccc2)C(N2CCCCC2)C1C1CC2c3ccccc3C1c1ccccc12` (stereo unspecified), the TGI was more than 100 µM.

The molecule `COc1cc(/C=C2/SC(c3ccccc3)N(c3cccc(Cl)c3)C2=O)cc(OC)c1OC` (stereo unspecified) returned a TGI of more than 100 µM.

Consider `COc1ccc2c(c1)CCN=C2Cc1cc(OC)c(OC)cc1CCCl`, for which the TGI was more than 100 µM.

`Cn1ccc(C(=O)N2CCSC2=S)c(OCc2ccccc2)c1=O`: the TGI was more than 100 µM.

In turn, `COC(=O)CC1C(COC(C)=O)OC(n2cc(C)c(=O)[nH]c2=O)C1OC(C)=O` (stereo unspecified) gave a TGI of more than 100 µM.

On to `CS(=O)(=O)OC1CN2CCC1CC2` (stereo unspecified), for which the TGI is more than 100 µM.

In turn, `CC(C)CC[C@H](O)[C@@H](C)[C@H]1[C@@H](OC2OC(C)C(O)C(O)C2O)C[C@H]2[C@@H]3CC=C4C[C@@H](O)CC[C@]4(C)[C@H]3[C@@H](O)C[C@]12C` (stereo partly specified) had a TGI of more than 100 µM.

Regarding `CCN(CC)CCCn1cnc2ncccc2c1=O`, the TGI was more than 100 µM.

As for `N#C/C(=N\Nc1ccc(Cl)cc1)C(=O)Nc1cc(-c2ccccc2)nn1-c1ccccc1`, the GI50 was 3 µM and the TGI is more than 100 µM.

The molecule `COC(=O)C1=C(C(=O)OC)C(Cc2ccccc2)(OO)OC1=O` (stereo unspecified) had a TGI of 50.7 µM.

In turn, `CN(C)c1nc(N(C)C)nc(N(C)CN(C)c2ccc(Cl)cc2)n1` yielded a TGI of more than 100 µM.

`CC(=O)Nc1ccc(N=C2C(c3ccccc3)=C(SC3=C(c4ccccc4)C(=Nc4ccc(NC(C)=O)cc4)c4ccccc43)c3ccccc32)cc1` came in with a TGI of more than 100 µM.

With `O=S(=O)(N/N=C/c1ccc(Cl)c(Cl)c1)c1ccccc1`, the TGI was more than 100 µM.

In turn, `COc1ccc2nc3cc(Cl)ccc3c(NCCC[N+](C)(C)CCCCCCCCCCCCCCCC[N+](C)(C)CCCNc3c4ccc(Cl)cc4nc4ccc(OC)cc34)c2c1` came in with a TGI of 8.18 µM.

On to `COC(=O)c1cc2c3c(cc(N(C)C)c2[nH]1)N(C(=O)c1cc2cc(OC)c(OC)c(OC)c2[nH]1)CC3CCl` (stereo unspecified), for which the TGI was 0.0209 µM.

Turning to `N#Cc1ncc(-c2ccc(C(F)(F)F)cc2)c(NCc2cc(C(F)(F)F)cc(C(F)(F)F)c2)n1`, the GI50 was 5.12 µM and the TGI came to 83.8 µM.

Molecule `O=S(=O)(N/N=C1\CC2CCC1C2)c1ccccc1` (stereo unspecified) had a TGI of more than 100 µM.

As to `CSc1cccc(-n2c3nc(=O)n(C)c(=O)c-3nc3ccccc32)c1`, the TGI came to 23.2 µM.

For `C/C(=C\c1ccccc1)C(=O)NCc1ccc(C(=O)NCCC(C)C)cc1`, the TGI is more than 100 µM.

As to `C/C=C/C1=C(Cl)C(=O)[C@@H](Cl)[C@@]1(O)C(=O)OC`, the TGI was found to be 34.8 µM.

The molecule `C/C(=N\NC(N)=S)c1cc(C)c(C)cc1C` showed a TGI of more than 100 µM.

`CCOc1ccc(NC(=O)C2=C(C)NC(C)=C(C(=O)Nc3ccc(OCC)cc3)C2c2ccc(O)c(OC)c2)cc1` displayed a TGI of more than 100 µM.

Regarding `c1ccc(C2CC(c3cccc(Nc4ccncc4)c3)=NN2c2ccccc2)cc1` (stereo unspecified), the GI50 was 1.63 µM and the TGI worked out at 3.12 µM.

With `O=C(CC(=O)Nc1cccc(Cl)c1)NNCC(=O)Nc1nnc(-c2ccccc2)s1`, the TGI was more than 100 µM.

`CN(c1cc2ncc(=O)[nH]c2cc1NC(N)=NCc1ccc(Cl)cc1)C1CCCCC1`: the GI50 is 8.14 µM and the TGI is 15.3 µM.

`Cc1cc(NS(=O)(=O)c2ccc(NC(=O)c3ccc4[nH]c5ccccc5c(=O)c4c3)cc2)no1` gave a TGI of more than 100 µM.

On to `C=CCc1cc(-c2cc(CC=C)c(O)c(CNC)c2)cc(CNC)c1O`, for which the TGI came out at 30.8 µM.

For the molecule `CCCCCc1nc2c(c3c1CCCC3)CCCC2`, the GI50 is 12.6 µM and the TGI came to 49.7 µM.

With `CN(CCCCCl)P(=O)(OCc1ccc([N+](=O)[O-])o1)OCC1OC(n2ccc(N)nc2=O)C(F)(F)C1O` (stereo unspecified), the GI50 is 3.49 µM and the TGI is more than 27.2 µM.

As for `COc1cc2c(cc1O)-c1c(cnn1-c1ccc([N+](=O)[O-])cc1)CCC2`, the TGI came out at 61 µM.

With `O=C(Nc1nc(C23CC4CC(CC(C4)C2)C3)cs1)c1c(O)c2ccccc2[nH]c1=O`, the TGI was more than 100 µM.

`C1=Nc2ccc(cc2)N=Cc2ccc(cc2)OCc2cccc(n2)COc2ccc1cc2` showed a TGI of more than 100 µM.

Take `[Cl][Sn]([Cl])([c]1ccccc1)[c]1ccccc1`: the GI50 was 18.3 µM and the TGI worked out at 32.3 µM.

For the molecule `OC1(c2ccc(Cl)cc2)c2c(ccc3c2OCO3)C2=NCCN21` (stereo unspecified), the TGI worked out at 54.1 µM.

As for `Clc1cc2c(cc1Cl)Oc1cc(Cl)c(Cl)cc1O2`, the GI50 was more than 0.625 µM and the TGI is more than 0.625 µM.

In turn, `CC1OC(n2ccc(=O)[nH]c2=O)C=C(OC(=O)c2ccccc2)C1=O` (stereo unspecified) displayed a TGI of more than 100 µM.

With `CC(=O)N1N=C(c2ccc(Nc3nc(Nc4ccc(Cl)cc4)nc(Nc4ccc(Cl)cc4)n3)cc2)CC1c1ccc([N+](=O)[O-])cc1` (stereo unspecified), the GI50 was 30.8 µM and the TGI is more than 100 µM.

For `Cc1ccccc1C1=[N+]([O-])c2ccccc2C1=O`, the TGI is more than 100 µM.

As to `COC(c1cccc(C(O)(C(F)(F)F)C(F)(F)F)c1)(C(F)(F)F)C(F)(F)F`, the TGI came to 34.9 µM.

Consider `CC(C)c1c(C(=O)Nc2ccccc2)c(-c2ccccc2)c(-c2ccc(F)cc2)n1CC[C@@H]1CC=CC(=O)O1`, for which the GI50 is 1.7 µM and the TGI was found to be 3.28 µM.

`COc1ccc(/C=C2\C(=O)N(C)C(=O)c3cc(OC)c(OC)cc32)cc1OC` yielded a TGI of more than 100 µM.
